Out of some 50,000 compounds screened, about 800 (1.6%) showed an effect of 50% or more. Some of the results follow.

In the experiment the target is Bcl-2-like protein 10 (Homo sapiens) (UniProt Q9HD36). Put plainly: TR3 peptide-Bcl-B binding displacers, biochemical primary FP assay, phenotype converters (AID 1240).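 Also: 0% = Bcl-B with tracer peptide and DMSO and 100% = tracer peptide lacking Bcl-B.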 The note with it: GST-Bcl-B / FITC-TR3 peptide fluorescence polarization; stronger effect = higher value; compound at 3.75 mg/L. For orientation: Fluorescence polarisation rises when a labelled molecule tumbles more slowly, as on binding a larger partner.
UniProt Q9HD36, sequence (Q9HD36 whole entry, looked up): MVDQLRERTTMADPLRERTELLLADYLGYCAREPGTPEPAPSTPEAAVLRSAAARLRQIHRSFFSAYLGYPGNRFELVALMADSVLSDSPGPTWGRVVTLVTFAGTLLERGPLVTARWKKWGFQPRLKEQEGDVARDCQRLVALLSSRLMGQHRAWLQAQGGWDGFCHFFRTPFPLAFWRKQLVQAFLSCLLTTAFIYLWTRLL
As for `Cc1ccc(N2C(=O)NC(=O)/C(=C\c3ccc(C)s3)C2=O)cc1`, the displacement was 13.4%.

As to `CCSCCOC(=O)C1=C(C)N(C)C(=O)NC1c1cc2c(cc1Br)OCO2` (stereo not drawn), the displacement was -3.4%.

With `O=S(=O)(Nc1cc(Cl)c(O)c2ccccc12)c1ccc(F)cc1`, the displacement is 4.7%.

For `Cc1c(C(=O)OC(C)C)sc(NC(=O)c2cccc(F)c2)c1C#N`, the displacement is -10%.

With `N#CC1=C(S)NC(=O)C(C#N)C12CCCCC2` (stereo not drawn), the displacement was -5.2%.

For the molecule `O=C(Nc1ccc(-c2nc3ccccc3o2)c(O)c1)c1cccc(OCc2ccccc2)c1`, the displacement is 8.1%.

With `O=C(NCc1cccnc1)C(O)(c1ccccc1)c1ccccc1`, the displacement worked out at 8.1%.

`Cn1c(=O)cc(NCCc2ccccc2)[nH]c1=O`: the displacement was -1.7%.

As for `COc1ccc(/C=C/C(=O)c2ccc(Br)cc2)cc1[N+](=O)[O-]`, the displacement was 12.9%.

In the case of `CCOC(=O)c1cnn(-c2ccccc2)c1NC(=O)c1ccccc1C`, the displacement was -10.1%.

Regarding `CCN1C(=O)/C(=C\c2ccc(F)cc2)C(C(=O)OC)=C1C`, the displacement came to 34.2%.

As to `CCCN(CCC)CCSc1nc(O)c(C(C)C)c(=O)n1-c1ccccc1`, the displacement is -11.9%.

As to `COc1ccccc1/C=C(/C#N)c1nc2ccc(C)cc2[nH]1`, the displacement is -7.2%.

Regarding `O=C(CCN1C(=O)/C(=C/c2cccs2)SC1=S)NC12CC3CC(CC(C3)C1)C2`, the displacement worked out at 10.5%.

As to `COc1ccc(C(=O)N2N=C(C)CC2(O)c2ccc(Br)cc2)cc1` (stereo not drawn), the displacement is -6.5%.

As to `CN1CCO/C1=C(C#N)\C=C1\Nc2ccccc2C1=O`, the displacement is -77.4%.

In the case of `CCOc1ccc(C(=O)Nc2cc(C(=O)OC)cc(C(=O)OC)c2)cc1[N+](=O)[O-]`, the displacement worked out at 7.6%.

`Cc1ccc(N2C(=O)C(Cl)=C(Nc3ccccc3F)C2=O)c(C)c1`: the displacement worked out at 71.5%.

`O=C(O)c1ccc2c(c1)C(=O)N(c1ccc(-c3nc4ccccc4c(=O)o3)cc1)C2=O`: the displacement was found to be 1.6%.

In the case of `O=C(COc1ccc(I)cc1)Nc1ccc2c(c1)oc1ccccc12`, the displacement was -26.6%.

Consider `O=C(Nc1ccc(F)cc1)c1ccc([N+](=O)[O-])cc1`, for which the displacement stood at 12.7%.

For `O=c1cc(-c2ccccc2)[nH]n1-c1nc(-c2ccccc2)cc(-c2ccccc2O)n1`, the displacement came to 4.8%.

Regarding `Cc1ccc(/C=C2/NC(=S)NC2=O)s1`, the displacement came to 8%.

Take `CC(C)OC(=O)c1cnn2c(C(F)(F)F)cc(-c3ccc(F)cc3)nc12`: the displacement came to 10.9%.

Turning to `O=C(N/N=C/c1ccc(Br)cc1)C1CC(=O)N(c2ccc(F)cc2)C1` (stereo not drawn), the displacement is -9.8%.

Regarding `COc1ccc(OC)c(C2NC(=S)NC(C)=C2C(=O)Nc2cc(Cl)ccc2C)c1` (stereo not drawn), the displacement was determined as 1.9%.

As to `COc1cc([N+](=O)[O-])cc(/C=C2\C(=O)NC(=O)N(c3ccc(Br)c(C)c3)C2=O)c1O`, the displacement came out at 7.2%.

Take `CC(C)CCN(CCN1C(=O)c2ccccc2C1=O)CCN1C(=O)c2ccccc2C1=O`: the displacement stood at 17.9%.

As for `Cc1ccc(N(C(=O)C(Cl)(Cl)Cl)C2C=CS(=O)(=O)C2)cc1` (stereo not drawn), the displacement is 15.1%.

In the case of `CC(=O)CC(=O)Nc1ccc(-c2ccc(NC(=O)CC(C)=O)c(C)c2)cc1C`, the displacement is 3.5%.

As to `Cc1cc(NC(=O)c2ccc(Br)cc2)ccc1NC(=O)c1ccccc1`, the displacement is 4.3%.

`COc1ccc(NC(=O)Nc2ccccc2I)cc1OC`: the displacement is -25.9%.

With `Cc1cccc(NC(=O)COc2c(C)cc(C)cc2C)c1`, the displacement is 11%.

Regarding `CC(C)c1ccc(C2/C(=C(\O)c3ccccc3)C(=O)C(=O)N2c2cccnc2)cc1` (stereo not drawn), the displacement is 10.1%.

Turning to `COc1ccc(C/C(N)=N/OC(=O)c2ccc(Cl)cc2)cc1`, the displacement was -6.7%.

As to `Cc1ccc(N2C(=O)C(Cl)=C(Nc3ccc(C)c(C)c3)C2=O)c(C)c1`, the displacement was 7.7%.

For `CC(NC(=O)CSC(=O)c1ccccc1)c1ccccc1` (stereo not drawn), the displacement was -2.9%.

As to `O=S(=O)(Nc1ccc2oc(-c3ccccc3F)nc2c1)c1ccccc1`, the displacement was determined as 1.3%.

Take `COc1ccccc1NC(=O)CC1S/C(=N\N=C(/C)c2ccc([N+](=O)[O-])cc2)NC1=O` (stereo not drawn): the displacement was 3%.

With `CC1=C(C(=O)OC(C)C)C(c2cc(Br)ccc2F)CC(=O)N1` (stereo not drawn), the displacement was -6%.

For the molecule `O=C(CSc1nnnn1-c1ccccc1)NC12CC3CC(CC(C3)C1)C2`, the displacement is -25.5%.

Consider `Cc1cc(/C=N/c2nc3ccc(Br)cc3n2C)c(O)c([N+](=O)[O-])c1`, for which the displacement is -9.2%.

Take `CCc1ccccc1NC(=O)[C@H]1CC=CC[C@H]1C(=O)O`: the displacement worked out at 13.6%.

For `O=C(NCCCO)C(=O)NCc1ccccn1`, the displacement is -4.1%.

On to `COc1ccccc1/C=N/Nc1cc(N2CCOCC2)nc(N2CCOCC2)n1`, for which the displacement came to 10.4%.

`CCCCOC(=O)C1=C(C)NC2=C(C(=O)CC(c3ccccc3)C2)C1c1ccc(O)c([N+](=O)[O-])c1` (stereo not drawn): the displacement was -7.4%.

For the molecule `CCOC(=O)c1ccc(NC(=O)c2cc(Br)ccc2Cl)cc1`, the displacement is -5.9%.

For the molecule `CC(=O)N(C1=C(Cl)C(=O)c2ccccc2C1=O)c1ccc(Cl)cc1`, the displacement is -5.3%.

In the case of `COc1cc(CN2CCN(C(=O)CC(C)C)CC2)cc(OC)c1`, the displacement is -11%.

`CCCc1cc(=O)n2[nH]c(-c3ccc(C)cc3)c(C)c2n1`: the displacement came out at 9.4%.

Regarding `COc1ccc(/C=C/C(=O)CC(=O)C(Cl)(Cl)Cl)cc1`, the displacement is 12.7%.

As for `O=C(C1CCCO1)N1CCN(c2cccc(Cl)c2)CC1` (stereo not drawn), the displacement was 0.3%.

With `Cc1c(NC(=O)Cc2ccccc2)c(=O)n(-c2ccccc2)n1C`, the displacement is -13.4%.

Regarding `O=C(c1cccnc1)N1CCN(C(=O)c2cccs2)CC1`, the displacement is 33.6%.

For the molecule `COC(=O)C1=C(C)NC(C)=C(C(=O)OC)C1c1ccc(Br)cc1`, the displacement was -2.4%.

In the case of `CCOC(=O)c1c(N)sc(C(=O)Nc2ccc3c(c2)OCO3)c1C`, the displacement is 6.7%.

With `O=[N+]([O-])c1ccccc1-c1nc(-c2ccccc2)c(-c2cccs2)[nH]1`, the displacement came to 0.8%.

Regarding `CCN=C1S/C(=C\c2ccc(I)o2)C(=O)N1CC`, the displacement is -19.5%.

Turning to `COc1ccc(C(C[N+](=O)[O-])c2c[nH]c3ccccc23)cc1` (stereo not drawn), the displacement worked out at 31.9%.

Regarding `O=C(Nc1ccc(OC(F)(F)F)cc1)C1CCCN1S(=O)(=O)c1ccc(Cl)cc1` (stereo not drawn), the displacement was -6.1%.

With `O=C(COc1ccc(Cl)cc1)Nc1ccc2c(c1)OCO2`, the displacement was -3.5%.

For the molecule `CC(C)c1ccccc1OCCCN1CCCCC1`, the displacement is -1.2%.

With `O=C(C(c1ccccc1)c1ccccc1)N1CCC(Cc2ccccc2)CC1`, the displacement was determined as 0.5%.

As to `COc1ccc(/C=C2/Sc3ccccc3C2=O)cc1[N+](=O)[O-]`, the displacement is -5.3%.

Consider `COc1ccccc1C(=O)Nc1ncn[nH]1`, for which the displacement was determined as 5.4%.

On to `O=C(COc1ccc(Cl)cc1Cl)OCc1ccccc1`, for which the displacement was -9.2%.

`CCOC(=O)C1=NNC(C(=O)c2ccc(Cl)cc2)C1c1ccc(OC)cc1` (stereo not drawn): the displacement was -5.3%.

For the molecule `COC(=O)C1=C(C)N(C)C(C)=C(C(=O)OC)C1c1ccc(OCc2ccccc2)cc1`, the displacement is -3.9%.

With `CCCC(=O)Nc1cccc(NC(=O)COc2ccc(Br)cc2)c1`, the displacement was determined as 1.6%.

In the case of `Cn1c(=N)n(CC(=O)c2cc(C(C)(C)C)c(O)c(C(C)(C)C)c2)c2ccccc21`, the displacement came out at 8.5%.

Turning to `O=C(CN1C(=O)C(=O)c2ccccc21)c1ccc(Cl)cc1`, the displacement was 3.2%.

Consider `Cc1ccc(/C=C2/SC(=S)N(CCC(=O)N3c4ccccc4Sc4ccccc43)C2=O)cc1`, for which the displacement came to 10%.

In the case of `O=C(O)c1cccc(C(=O)Cc2ccccc2)c1`, the displacement is -1.9%.

In the case of `C=CCC(O)(CC=C)c1cc(-c2ccccc2)nc2ccccc12`, the displacement was 5.9%.

For the molecule `COC(=O)C1=C(C)N=c2s/c(=C\c3ccc(F)cc3)c(=O)n2C1c1ccccc1` (stereo not drawn), the displacement was determined as 12.6%.

With `Cc1sc2nc(SCC(=O)NCCCN3CCOCC3)[nH]c(=O)c2c1C`, the displacement is -1.2%.

For the molecule `CCC(C)c1ccc(NC(=O)/C=C/c2cccc([N+](=O)[O-])c2)c(O)c1` (stereo not drawn), the displacement was 7.6%.

On to `O=C(Nc1ccc(OCc2ccccc2)cc1)c1cncc(Br)c1`, for which the displacement is 10.3%.

On to `Cc1cc(Br)ccc1OCC(=O)N1CCCCC1`, for which the displacement worked out at 3.8%.

With `O=C(Nc1ccc(Cl)c(Cl)c1)c1cccc(F)c1`, the displacement was -2.1%.

`O=C(CCC1CCCC1)N1CCN(C2CCCCC2)CC1`: the displacement was -0.4%.

Consider `Cc1ccc(NC(=O)CN(c2ccc(Oc3ccccc3)cc2)S(C)(=O)=O)cc1C`, for which the displacement worked out at 5.9%.

For `Cc1ccccc1C(=O)Nc1ccc(C(=O)Nc2nccs2)cc1`, the displacement is -13.4%.

Consider `CC1=CC(C)(C)N(C(=O)Nc2ccccc2)c2c(C)cc(C)cc21`, for which the displacement amounted to 3.9%.

Take `O=C1OC(c2ccccc2)=N/C1=C/c1ccco1`: the displacement was determined as 0.3%.

Consider `CCCCC(=O)N1c2c(C)cccc2C(Nc2ccccc2C)CC1C` (stereo not drawn), for which the displacement was 4.7%.

As to `CCOC(=O)c1c(NC(=O)c2ccccc2C)sc2c1CC(C)(C)OC2`, the displacement is -15.2%.

For `CCc1ccc(NC(=O)CSc2nnc(C)s2)cc1`, the displacement was -4.7%.

On to `CNC(=S)N(C)/N=C/c1c(Cl)cccc1[N+](=O)[O-]`, for which the displacement was 8.7%.

Turning to `CCOc1ccc(C2/C(=C(\O)c3ccc([N+](=O)[O-])cc3)C(=O)C(=O)N2CCCCCC(=O)O)cc1` (stereo not drawn), the displacement stood at 8.5%.

In the case of `CC1=C(C(=O)Nc2ccccc2)C(c2cccc(Br)c2)NC(=O)N1` (stereo not drawn), the displacement was found to be 1.4%.

As for `Cc1cc(Cl)ccc1OC(=O)COc1ccc([N+](=O)[O-])cc1`, the displacement is 2.1%.

Regarding `CC(=O)CC(=O)Nc1ccc(F)cc1F`, the displacement was found to be 6.5%.

On to `CC1CCN(C(=O)CSc2nc3ccc([N+](=O)[O-])cc3s2)C(C)C1` (stereo not drawn), for which the displacement came out at 2.3%.

Consider `CCOC(=O)C1=C(C)N=c2s/c(=C\c3cc(OC)ccc3OC)c(=O)n2C1c1cccc(OC)c1` (stereo not drawn), for which the displacement amounted to 9.6%.

In the case of `CC(=O)Nc1cc(-c2ccc(Cl)cc2)[nH]n1`, the displacement came out at 11%.

As for `O=C(N/N=C/c1ccc[nH]1)c1ccccc1[N+](=O)[O-]`, the displacement is -1.5%.

Consider `O=C1CC(c2ccc(Cl)cc2)CC2=C1C(c1cc3c(cc1Cl)OCO3)Nc1ccccc1N2` (stereo not drawn), for which the displacement is -2.9%.

As to `CC(C)C(=O)NS(=O)(=O)c1ccc(NC(=O)c2ccccc2Cl)cc1`, the displacement came to 14.3%.

Take `CCc1ccc(NC(=O)CSc2nnc(SCC(=O)Nc3ccc(CC)cc3)s2)cc1`: the displacement worked out at 8%.

As to `COc1ccc(-c2nc(=S)c3c(n2CCCO)CCCC3)cc1`, the displacement was -5.3%.

Take `CN1C(=O)C(=Cc2cc([N+](=O)[O-])cc(Br)c2O)C(=O)N(C)C1=O`: the displacement came to 16.5%.

Consider `Cc1onc(-c2ccccc2Cl)c1C(=O)Nc1ccc(O)c(C(=O)O)c1`, for which the displacement is 6.8%.

`CS(=O)(=O)N(CC(=O)O)c1ccc(F)cc1`: the displacement turned out to be 6.7%.

Regarding `O=C(c1cccc([N+](=O)[O-])c1)c1ccc2c(c1)C(=O)N(c1ccc(Cl)cn1)C2=O`, the displacement came out at 0.7%.

Take `CCCN1C(=O)c2ccccc2NC1c1ccc(OC)c(COc2ccccc2F)c1` (stereo not drawn): the displacement is -1.5%.

On to `CCOc1ccc(/C=C2\SC(=O)N(c3ccccc3)C2=O)cc1`, for which the displacement is -1.9%.

Turning to `Cc1nc2cc(-c3cccc(F)c3)[nH]n2c(=O)c1C`, the displacement was determined as 12.1%.

The record behind these values is PubChem BioAssay AID1240 (Sanford-Burnham Center for Chemical Genomics, 2008).
